Out of some 150,000 compounds screened, about 540 (0.36%) showed an effect of 50% or more. This is one part of the list.

The subject of this experiment is Plasmodium falciparum. Description: Primary screen in NF54 nanoGlo assay, in single point, at 2uM, 72h; a lower Z score goes with more inhibition. The class given is functional, Erythrocyte. As to conditions: timepoint 72 hour.
Regarding `Cc1ccc2c(c1)N[C@H](C(=O)N1CCN(c3cccc(Cl)c3)CC1)NS2(=O)=O`, the % Inhibition (commonly the drop in the measured response relative to a control, in per cent) was -7% and the Z score stood at 1.41.

As to `COc1ccc(N2CCN(C(=O)c3nn(-c4ccc(Cl)cc4)c(=O)n(C)c3=O)CC2)cc1`, the “% Inhibition” value stood at 1% and the Z score was -0.06.

Turning to `COc1ccc(CCNC(=O)Cn2cc(C(=O)c3ccncc3)c(=O)c3cc(C)c(F)cc32)cc1OC`, the “% Inhibition” value is -3% and the Z score is reported as 0.42.

Turning to `COCCOCCCC(=O)NC[C@@H](c1ccc(C)cc1)N1CCCC1`, the “% Inhibition” value turned out to be 4% and the Z score was -0.34.

Turning to `O=C(Nc1ccc2c(c1)OCO2)N(Cc1cccnc1)C1CCCCC1`, the “% Inhibition” value is given as -11% and the Z score is 1.45.

As to `O=C(Nc1cccc(-c2noc(-c3cncc(C(F)(F)F)c3)n2)c1)c1ccco1`, the “% Inhibition” value is given as 0% and the Z score is recorded as -0.01.

Consider `CC(C)(C)c1cc(CNc2cc(-c3ccncc3)nc3ccnn23)[nH]n1`, for which the “% Inhibition” value is recorded as 0% and the Z score is recorded as -0.03.

For the compound `CC1(C)COCCN1C(=O)CCCC(=O)N1CCOCC1(C)C`, the “% Inhibition” value was -9% and the Z score came out at 1.2.

Regarding `COc1ccc(N2C(=O)CN(S(C)(=O)=O)C[C@@]2(C)C(=O)NC2CCCCCCC2)c(OC)c1`, the “% Inhibition” value is reported as 1% and the Z score is listed as -0.12.

Consider `CCOCCC1(Cn2nnnc2N(C)Cc2cnn(C)c2)CCC1`, for which the “% Inhibition” value was -11% and the Z score came to 1.46.

On to `O=C(Cn1cccn1)Nc1cccc(N2CCCC2=O)c1`, for which the “% Inhibition” value is -2% and the Z score is listed as 0.34.

`Cc1cc(C)n(C(=O)CNc2ccc(C)c(C)c2)n1`: the “% Inhibition” value was -10% and the Z score is 1.35.

For the compound `CCOc1cccc(-c2ccc3nc(-c4cccc(OC)c4)c(CCC(=O)NC4CC4)n3c2)c1`, the “% Inhibition” value is on record as 4% and the Z score is recorded as -0.75.

Regarding `CCN(CC)c1ccc2c(c1)Oc1cc(N(CC)CC)ccc1C21c2ccccc2C(=O)N1c1ccccc1`, the “% Inhibition” value was 3% and the Z score is given as -0.67.

In the case of `COc1ccc(Cl)cc1NC(=O)N(C)Cc1nc2cc(C(=O)NC(C)C)ccc2n1C`, the “% Inhibition” value is reported as -15% and the Z score was found to be 1.73.

For `CCCn1ncnc1-c1cccc(C(=O)N(C)C2CCN(C)CC2)c1`, the “% Inhibition” value is reported as -5% and the Z score was found to be 0.56.

With `CC1CC(CC(=O)NCC2(O)CCS(=O)(=O)CC2)CC(C)(C)C1` (centres undefined), the “% Inhibition” value is reported as -11% and the Z score was 2.24.

`Cn1ncnc1CN1CCOC[C@@H](C2CCC2)C1`: the “% Inhibition” value is reported as 17% and the Z score is recorded as -2.2.

With `N#Cc1nccnc1NC[C@@H](CO)Cc1ccccc1Cl`, the “% Inhibition” value is on record as -13% and the Z score is recorded as 1.41.

For the compound `COc1cnc([C@@H]2CCCN2c2nccc(C)n2)[nH]c1=O`, the “% Inhibition” value was -7% and the Z score is given as 1.38.

As for `CN(C)c1ccc(NC2CCC(NC(=O)OC(C)(C)C)CC2)cn1` (centres undefined), the “% Inhibition” value turned out to be 5% and the Z score is on record as -0.66.

Take `CCn1cc(CN(Cc2nnc(C)o2)CC(C)C)cn1`: the “% Inhibition” value was 1% and the Z score was -0.29.

In the case of `O=C(NCCc1ccccc1)C(=O)Nc1cccc(N2CCCC2=O)c1`, the “% Inhibition” value is on record as -17% and the Z score is listed as 2.6.

Turning to `CCN(CC)CCOc1c(Cl)cccc1Cl`, the “% Inhibition” value was 13% and the Z score is -1.62.

In the case of `Fc1ccc(-c2nnc(-c3ccc(-n4ccnc4)nc3)o2)cc1`, the “% Inhibition” value is given as -8% and the Z score is 0.99.

As to `COC(=O)c1cc(CNc2nc(C)nc(C)c2F)ccn1`, the “% Inhibition” value is on record as -4% and the Z score is reported as 0.44.

In the case of `OCCn1nc(-c2ccncc2)nc1Cc1ccc(F)c(F)c1F`, the “% Inhibition” value is on record as -7% and the Z score turned out to be 1.27.

In the case of `O=C(NCCCCO)Nc1csnc1-c1ccccc1`, the “% Inhibition” value is -11% and the Z score is recorded as 1.47.

In the case of `O=C1[C@@H]2CC[C@@H](CN(c3nnc(-c4ccccc4)s3)C2)N1CC1CC1`, the “% Inhibition” value amounted to 15% and the Z score was -1.96.

In the case of `CC(C)CN(CC(=O)N(CCc1ccccc1)Cc1ccco1)C(=O)Cc1ccccc1`, the “% Inhibition” value came out at 5% and the Z score is -0.46.

Consider `Cc1nn(-c2ccccc2)c(=O)n1CC(=O)NCCCOc1cccnc1`, for which the “% Inhibition” value was -9% and the Z score worked out at 1.56.

Take `CC(C)NC(=O)N(Cc1ccccc1OS(C)(=O)=O)CC1CC1`: the “% Inhibition” value is on record as -6% and the Z score was found to be 0.8.

As for `COc1ccccc1N1C(=O)c2cc(C)nn2C[C@@]1(C)C(=O)NCc1ccc(Cl)cc1`, the “% Inhibition” value was -3% and the Z score is reported as 0.55.

Turning to `Cc1ccc(S(=O)(=O)N2CCC(F)(c3nc(CC(C)C)no3)CC2)cc1F`, the “% Inhibition” value is reported as -5% and the Z score is listed as 1.02.

For the compound `CC(C)n1cc(NC(=O)c2ccc(Cl)cn2)cn1`, the “% Inhibition” value is -13% and the Z score was 2.2.

As to `Cc1ccn(CCC(=O)N[C@@H](C)c2c(C)n[nH]c2C)n1`, the “% Inhibition” value is -13% and the Z score was 1.68.

On to `Cn1nnc2c[n+](CC(=O)c3ccc4ccccc4c3)cc(Br)c21`, for which the “% Inhibition” value is reported as -2% and the Z score is given as 0.18.

As to `CC1CCN(C(=O)NCCNC(=O)C(C)(C)C)CC1C` (centres undefined), the “% Inhibition” value is listed as -10% and the Z score amounted to 1.69.

Consider `CC(O)CN1CCN(C(C)C(=O)N2CCCCCC2)CC1C` (centres undefined), for which the “% Inhibition” value is listed as -8% and the Z score was 1.22.

In the case of `Nc1ccc(Cc2nc3c(s2)CCCC3)cc1`, the “% Inhibition” value is -4% and the Z score worked out at 0.48.

On to `O=C(O)Cn1cc(C=Cc2nc(-c3ccccc3)cs2)nn1`, for which the “% Inhibition” value is recorded as -2% and the Z score turned out to be 0.18.

On to `CCn1ncc(-c2csc(NC(=O)c3cc(C4CC4)[nH]n3)n2)c1C`, for which the “% Inhibition” value came out at 1% and the Z score is given as -0.12.
